Assay results from patent US20250177546A1, “ROR1-TARGETED BINDING MOLECULE AND USE THEREOF” (SANYOU BIOPHARMACEUTICALS CO., LTD., priority 2022, published 2025).
Entries after “also recorded” stand apart in the source; their conditions may differ.

How the values were obtained:
[1] = target: T1, human ROR2 antigen protein huROR2-His (Homo sapiens, UniProt Q01974); assay: ELISA cross-reactivity between homologous groups (huROR2-His); type: binding
T1 construct: huROR2 ECD AA34-403 (Uniprot ID: Q01974); made in house; host or cells: HEK293 (transient transfection, pcDNA3.4)

[2] = target: T2, mouse ROR1 antigen protein MusROR1-His (Mus musculus, UniProt Q9Z139); assay: ELISA cross-reactivity between species (MusROR1-His); type: binding
T2 construct: MusROR1 ECD AA30-406 (Uniprot ID: Q9Z139); made in house; host or cells: HEK293 (transient transfection, pcDNA3.4)

[3] = target: T3, antigen protein huROR1-His (Homo sapiens, UniProt Q01973); assay: Affinity kinetics (Gator); type: binding
T3 construct: huROR1 ECD AA30-406 (Uniprot ID: Q01973); made in house; host or cells: HEK293 (transient transfection, pcDNA3.4)

[4] = target: T3, antigen protein huROR1-His; assay: Affinity kinetics (Biacore); type: binding; settings: immobilised huROR1-His, 1:1 Langmuir model
huROR1-HEK293 cells [5] = assay: Antibody internalization by Fab-Zap method (MTS readout); type: cell-based, human; settings: 48 h, relative to control antibody 99961.1
huROR1-HEK293 cells [6] = assay: Antigen-dependent killing effect of ADC, CCK8 assay; type: cell-based, human; settings: CCK8, 96 h; pre-incubation with 100 μg/mL antibody before corresponding MMAE ADC
[7] = target: T4, human ROR1 on HT-29 tumor cells (Homo sapiens, UniProt Q01973); assay: FACS binding to HT-29 tumor cells; settings: relative to corresponding positive controls (99961.1, 99961.1-MMAE)
T4 construct: endogenous in cells; host or cells: HT-29 (human colon cancer)

[8] = target: T5, human ROR1 on A549 tumor cells (Homo sapiens, UniProt Q01973); assay: FACS binding to A549 tumor cells; settings: for binding activity/affinity to A549 tumor cells: in words, relative to control 99961.1 (ADC: 99961.1-MMAE)
T5 construct: endogenous in cells; host or cells: A549 (human non-small cell lung cancer)

Jeko-1 cells = assay: ADC tumor cell killing, CCK8 assay, Jeko-1; type: cell-based, human; settings: CCK8, 72 h
A549 tumor = assay: ADC efficacy in mouse model bearing A549 tumor; type: in vivo; settings: 10 mpk
A549 tumor cells = assay: ADC internalization efficiency by FACS, A549; type: cell-based, human; settings: relative to control ADC 99961.1-MMAE
HT-29 cells = assay: ADC tumor cell killing, MTS assay, HT-29; type: cell-based, human; settings: 96 h, relative to control 99961.1-MMAE
MDA-MB-468 cells = assay: ADC tumor cell killing, CCK8 assay, MDA-MB-468; type: cell-based, human; settings: CCK8, 72 h
HT-29 tumor cells = assay: ADC internalization efficiency by FACS, HT-29; type: cell-based, human; settings: relative to positive control ADC
NCI-H1944 cells = assay: ADC tumor cell killing, CCK8 assay, NCI-H1944; type: cell-based, human; settings: CCK8, 72 h
HT-29 tumor = assay: ADC efficacy in mouse model bearing HT-29 tumor; type: in vivo
A549 cells = assay: ADC tumor cell killing, MTS assay, A549; type: cell-based, human; settings: 72 h, relative to control 99961.1-MMAE

T2 sequence (Q9Z139 30-406): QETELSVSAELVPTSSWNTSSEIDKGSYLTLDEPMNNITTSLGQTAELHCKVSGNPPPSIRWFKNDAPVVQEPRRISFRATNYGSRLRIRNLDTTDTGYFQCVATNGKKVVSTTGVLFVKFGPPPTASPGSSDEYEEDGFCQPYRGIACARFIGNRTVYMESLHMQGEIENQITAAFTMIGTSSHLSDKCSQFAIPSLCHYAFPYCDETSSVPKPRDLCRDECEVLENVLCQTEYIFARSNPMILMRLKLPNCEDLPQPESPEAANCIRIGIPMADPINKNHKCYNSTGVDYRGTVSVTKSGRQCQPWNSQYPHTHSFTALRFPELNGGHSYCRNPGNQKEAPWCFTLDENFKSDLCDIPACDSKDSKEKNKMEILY
T5 sequence (Q01973 30-937): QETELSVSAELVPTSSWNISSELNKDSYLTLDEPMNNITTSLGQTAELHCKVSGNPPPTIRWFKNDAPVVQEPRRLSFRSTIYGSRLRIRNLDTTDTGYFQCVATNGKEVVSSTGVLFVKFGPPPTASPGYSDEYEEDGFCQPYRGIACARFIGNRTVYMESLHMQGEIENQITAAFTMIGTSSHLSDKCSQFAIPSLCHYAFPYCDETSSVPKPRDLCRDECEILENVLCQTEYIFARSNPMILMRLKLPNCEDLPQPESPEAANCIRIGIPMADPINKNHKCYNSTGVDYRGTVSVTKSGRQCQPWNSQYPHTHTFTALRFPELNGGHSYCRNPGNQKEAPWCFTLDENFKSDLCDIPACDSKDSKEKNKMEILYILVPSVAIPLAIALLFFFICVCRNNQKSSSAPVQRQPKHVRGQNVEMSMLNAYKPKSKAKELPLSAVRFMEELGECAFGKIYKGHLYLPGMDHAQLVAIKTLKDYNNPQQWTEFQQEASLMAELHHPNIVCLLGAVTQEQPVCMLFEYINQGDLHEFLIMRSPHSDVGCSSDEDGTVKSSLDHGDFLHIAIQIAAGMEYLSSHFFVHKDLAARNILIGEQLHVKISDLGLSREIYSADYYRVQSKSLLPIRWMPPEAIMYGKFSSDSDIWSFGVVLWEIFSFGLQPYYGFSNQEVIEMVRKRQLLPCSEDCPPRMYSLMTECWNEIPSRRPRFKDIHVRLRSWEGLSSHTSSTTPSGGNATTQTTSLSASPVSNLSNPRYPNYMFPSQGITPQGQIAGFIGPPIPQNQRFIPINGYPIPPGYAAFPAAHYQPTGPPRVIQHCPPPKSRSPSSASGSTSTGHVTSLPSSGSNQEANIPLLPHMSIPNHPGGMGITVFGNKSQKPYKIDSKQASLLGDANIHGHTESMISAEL
T3 sequence (Q01973 30-406): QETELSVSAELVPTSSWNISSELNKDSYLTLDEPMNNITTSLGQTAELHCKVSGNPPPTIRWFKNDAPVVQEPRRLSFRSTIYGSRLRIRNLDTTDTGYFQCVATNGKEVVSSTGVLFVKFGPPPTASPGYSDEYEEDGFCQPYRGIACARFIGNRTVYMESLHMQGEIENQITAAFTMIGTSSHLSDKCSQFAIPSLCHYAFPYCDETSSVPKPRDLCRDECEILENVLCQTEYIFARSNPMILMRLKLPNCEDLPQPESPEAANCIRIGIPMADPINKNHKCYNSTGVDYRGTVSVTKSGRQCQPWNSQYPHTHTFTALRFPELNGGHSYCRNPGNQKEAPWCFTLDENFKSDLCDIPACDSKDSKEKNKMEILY
T4 sequence (Q01973 30-937): as the sequence (Q01973 30-937) above
T1 sequence (Q01974 34-403): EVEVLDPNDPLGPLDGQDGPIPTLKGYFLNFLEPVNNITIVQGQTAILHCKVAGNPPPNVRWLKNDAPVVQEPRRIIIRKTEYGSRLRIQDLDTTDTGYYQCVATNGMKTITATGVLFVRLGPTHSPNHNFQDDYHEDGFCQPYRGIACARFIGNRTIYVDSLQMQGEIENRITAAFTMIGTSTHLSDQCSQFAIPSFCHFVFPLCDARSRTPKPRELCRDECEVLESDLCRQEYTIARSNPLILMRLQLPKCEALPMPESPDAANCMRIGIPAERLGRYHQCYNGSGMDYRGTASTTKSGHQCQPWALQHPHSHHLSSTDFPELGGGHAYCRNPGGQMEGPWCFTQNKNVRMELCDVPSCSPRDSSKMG

B1: B62: chimeric anti-ROR1 antibody, murine clone B62 variable regions with human IgG1/kappa constant regions; CDRs SEQ ID NO 1-3, 28-30 (antibody)
heavy: DVKLVESGGGLVQPGGSLKLSCAASGFTFSSYVMSWVRQTPDKRLELVATINSNGGNTYYPDSVKGRFTISRDNAKNTLYLQMSSLKSEDTAMYYCARDSLGLRRRDYAMDYWGQGTSVTVSS[human IgG1 constant region not listed]
light: DIVLTQSPASLSMAIGEKVTIRCVTSIDIDDDVNWYQQKPGKPPKLLISAGNTLRPGVPSRFSSSGYGTDFVFTIENMLSEDVADYYCLQSDNLPYTFGGGTKLEIKRTVAAPSVFIFPPSDEQLKSGTASVVCLLNNFYPREAKVQWKVDNALQSGNSQESVTEQDSKDSTYSLSSTLTLSKADYEKHKVYACEVTHQGLSSPVTKSFNRGEC
- huROR2-His [1]: no binding
- MusROR1-His [2]: bind to the antigen protein MusROR1-His; also recorded: binding
- Ka [3]: 379000 M⁻¹ s⁻¹
- Kd [3]: 0.000373 s⁻¹
- Rmax (nm) [3]: 1.400 nm
- ka [4]: 1.21e+06 M⁻¹ s⁻¹
- kd [4]: 7.74e-05 s⁻¹

B2: B31-H3L3: humanized anti-ROR1 antibody derived from murine antibody B31; CDRs SEQ ID NO 4-6, 43, 46, 48 (antibody)
heavy: EVQLVESGGGLVQPGGSLRLSCAASGFTFSRYAMSWVRQAPGKGLEWVASISRGGSTYYADSVKGRFTISRDNSKNTLYLQMNSLRAEDTAVYYCASYFGNYDAMDYWGQGTTVTVSS[human IgG1 constant region not listed]
light: DIQMTQSPSSLSASVGDRVTITCRASQDINNYVSWFQQKPGKAPKSLIYRANRLVSGVPSRFSGSGSGTDFTFTISSLQPEDFATYYCLQFDEFPYTFGGGTKLEIKRTVAAPSVFIFPPSDEQLKSGTASVVCLLNNFYPREAKVQWKVDNALQSGNSQESVTEQDSKDSTYSLSSTLTLSKADYEKHKVYACEVTHQGLSSPVTKSFNRGEC
- internalization effect/rate (Fab-Zap) (huROR1-HEK293 cells [5]): comparable to that of the control antibody 99961.1
- killing effect of the ADC on huROR1-HEK293 cells inhibited by the corresponding antibody (huROR1-HEK293 cells [6]): significantly competitively inhibited

B3: B62-H3L3: humanized anti-ROR1 antibody derived from murine antibody B62; CDRs SEQ ID NO 1-3, 28-30 (antibody)
heavy: EVQLVESGGGLVQPGGSLRLSCAASGFTFSSYVMSWVRQAPGKGLEYVATINSNGGNTYYADSVKGRFTISRDNSKNTLYLQMGSLRAEDTAMYYCARDSLGLRRRDYAMDYWGQGTTVTVSS[human IgG1 constant region not listed]
light: DIQMTQSPSSLSASVGDRVTITCVTSIDIDDDVNWYQQKPGKAPKLLISAGNTLRPGVPSRFSGSGSGTDFTFTISSLQPEDIATYYCLQSDNLPYTFGGGTKLEIKRTVAAPSVFIFPPSDEQLKSGTASVVCLLNNFYPREAKVQWKVDNALQSGNSQESVTEQDSKDSTYSLSSTLTLSKADYEKHKVYACEVTHQGLSSPVTKSFNRGEC
- binding activity to HT-29 cells [7]: slightly superior to those of the corresponding positive controls
- internalization effect/rate (Fab-Zap) (huROR1-HEK293 cells [5]): comparable to that of the control antibody 99961.1
- binding activity/affinity to A549 tumor cells [8]: superior to those of the corresponding positive controls

B4: B62-H3L3-MMAE (conjugate)
heavy: EVQLVESGGGLVQPGGSLRLSCAASGFTFSSYVMSWVRQAPGKGLEYVATINSNGGNTYYADSVKGRFTISRDNSKNTLYLQMGSLRAEDTAMYYCARDSLGLRRRDYAMDYWGQGTTVTVSS[human IgG1 constant region not listed]
light: DIQMTQSPSSLSASVGDRVTITCVTSIDIDDDVNWYQQKPGKAPKLLISAGNTLRPGVPSRFSGSGSGTDFTFTISSLQPEDIATYYCLQSDNLPYTFGGGTKLEIKRTVAAPSVFIFPPSDEQLKSGTASVVCLLNNFYPREAKVQWKVDNALQSGNSQESVTEQDSKDSTYSLSSTLTLSKADYEKHKVYACEVTHQGLSSPVTKSFNRGEC
- binding activity to HT-29 cells [7]: slightly superior to those of the corresponding positive controls
- EC50 (Jeko-1 cells): 50.1 nM
- binding activity of ADC to A549 cells relative to the corresponding naked antibody ([8]; after coupling): slightly inferior to those of the corresponding naked antibodies
- binding activity/affinity to A549 tumor cells [8]: superior to those of the corresponding positive controls
- anti-tumor effect relative to positive control ADC (A549 tumor; BIW*3): comparable to that of the positive control ADC
- Tumor growth inhibition (TGI) (A549 tumor; tail vein BIW*3, day 27): 18.82%
- Tumor growth inhibition (TGI) (A549 tumor; tail vein BIW*3, day 31): 33.29%
- Tumor growth inhibition (TGI) (A549 tumor; tail vein BIW*3, day 34): 30.91%
- Tumor growth inhibition (TGI) (A549 tumor; tail vein BIW*3, day 38): 40.03%
- Tumor growth inhibition (TGI) (A549 tumor; tail vein BIW*3, day 41): 37.77%
- Tumor growth inhibition (TGI) (A549 tumor; tail vein BIW*3, day 45): 35.15%
- Tumor growth inhibition (TGI) (A549 tumor; tail vein BIW*3, day 48): 36.38%
- internalization rate in A549 cells (A549 tumor cells): slightly lower than that of the positive control ADC
- killing effect on HT-29 tumor cells (HT-29 cells): slightly inferior to that of the control 99961.1-MMAE
- EC50 (MDA-MB-468 cells): 28.6 nM
- internalization rate in HT-29 cells (HT-29 tumor cells): slightly lower than that of the positive control ADC
- EC50 (NCI-H1944 cells): 129 nM
- Tumor growth inhibition (TGI) (HT-29 tumor; 2 mpk, tail vein BIW*4, day 23): −1.05%
- Tumor growth inhibition (TGI) (HT-29 tumor; 2 mpk, tail vein BIW*4, day 27): 1.92%
- Tumor growth inhibition (TGI) (HT-29 tumor; 2 mpk, tail vein BIW*4, day 30): −2.38%
- Tumor growth inhibition (TGI) (HT-29 tumor; 2 mpk, tail vein BIW*4, day 34): 4.20%
- Tumor growth inhibition (TGI) (HT-29 tumor; 2 mpk, tail vein BIW*4, day 37): 17.04%
- Tumor growth inhibition (TGI) (HT-29 tumor; 2 mpk, tail vein BIW*4, day 41): 16.26%
- Tumor growth inhibition (TGI) (HT-29 tumor; 2 mpk, tail vein BIW*4, day 44): 23.06%
- Tumor growth inhibition (TGI) (HT-29 tumor; 2 mpk, tail vein BIW*4, day 48): 27.19%
- Tumor growth inhibition (TGI) (HT-29 tumor; 2 mpk, tail vein BIW*4, day 51): 33.54%
- Tumor growth inhibition (TGI) (HT-29 tumor; 10 mpk, tail vein BIW*4, day 23): 20.27%
- Tumor growth inhibition (TGI) (HT-29 tumor; 10 mpk, tail vein BIW*4, day 27): 29.04%
- Tumor growth inhibition (TGI) (HT-29 tumor; 10 mpk, tail vein BIW*4, day 30): 23.90%
- Tumor growth inhibition (TGI) (HT-29 tumor; 10 mpk, tail vein BIW*4, day 34): 48.45%
- Tumor growth inhibition (TGI) (HT-29 tumor; 10 mpk, tail vein BIW*4, day 37): 63.35%
- Tumor growth inhibition (TGI) (HT-29 tumor; 10 mpk, tail vein BIW*4, day 41): 67.65%
- Tumor growth inhibition (TGI) (HT-29 tumor; 10 mpk, tail vein BIW*4, day 44): 68.50%
- Tumor growth inhibition (TGI) (HT-29 tumor; 10 mpk, tail vein BIW*4, day 48): 73.86%
- Tumor growth inhibition (TGI) (HT-29 tumor; 10 mpk, tail vein BIW*4, day 51): 73.87%
- tumor inhibition effect (HT-29 tumor; high-dose (10 mpk), BIW*4): significant tumor inhibition effects
- tumor inhibition effect relative to 99961.1-MMAE (HT-29 tumor; high-dose (10 mpk), BIW*4): slightly weaker than that of the control ADC 99961.1-MMAE
- Tumor growth inhibition relative to control ADC (HT-29 tumor; lower dose (2 mpk), BIW*4): significantly better than that of the control ADC 99961.1-MMAE
- killing effect on A549 tumor cells (A549 cells): slightly inferior to that of the control 99961.1-MMAE

B5: B31: chimeric anti-ROR1 antibody, murine clone B31 variable regions with human IgG1/kappa; CDRs SEQ ID NO 4-6, 31-33 (antibody)
heavy: EVMLVESGGGLVKPGGSLKLSCAASGFTFSRYAMSWVRQTPEKRLEWVASISRGGSTYYPDSVKGRFTISRDNARNILYLQMSSLRSEDTAMYYCASYFGNYDAMDYWGQGTSVTVSS[human IgG1 constant region not listed]
light: DIQMNQSPSSMYASLGERVTITCKASQDINNYVSWFQQKPGKSPKTLIYRANRLVDGVPSRFSGSGSGQDYSFTISSLEYEDMGIYYCLQFDEFPYTFGGGTKLEIKRTVAAPSVFIFPPSDEQLKSGTASVVCLLNNFYPREAKVQWKVDNALQSGNSQESVTEQDSKDSTYSLSSTLTLSKADYEKHKVYACEVTHQGLSSPVTKSFNRGEC
- huROR2-His [1]: no binding
- MusROR1-His [2]: no binding
- Ka [3]: 383000 M⁻¹ s⁻¹
- Kd [3]: 0.00217 s⁻¹
- Rmax (nm) [3]: 0.723 nm
- ka [4]: 653000 M⁻¹ s⁻¹
- kd [4]: 0.000817 s⁻¹
